Assay results as given in paper PMC10668032.
The other results are listed elsewhere or left out. At the low end of the ranking, values are background and their order means little.

These sequences were tested against SIX1 homeodomain (reference allele) (UniProt Q15475) (assay: universal protein binding microarray). Conditions: Universal all-10-mer PBM (8x60K, AMADID 030236), 300 nM GST-tagged protein, Alexa Fluor 488 anti-GST; buffer, salt, pH and temperature not stated; high values mean tight binding; most listed sequences are background and not binding sites; double strand, one strand shown.

Sequence | binding signal
CCTGGCTA | -0.0587 E-score
ACCTCTTA | -0.0505 E-score
AATACGCA | 0.128 E-score
AGGTCATC | -0.0726 E-score
CAAATAAC | -0.121 E-score
ACGTTGAC | -0.225 E-score
AAGGACTA | -0.125 E-score
CCGTTAAC | -0.109 E-score
ACCGGTGA | 0.127 E-score
ATACCAAC | 0.367 E-score
CGTCGCCA | -0.314 E-score
AAGATCTT | 0.0771 E-score
CCCTCACC | 0.106 E-score
ATATAAGC | 0.129 E-score
AATTTTGC | -0.369 E-score
CCCATACG | 0.033 E-score
ATTTAGCG | -0.114 E-score
CGCCTGCC | -0.0259 E-score
TCGTTGAA | -0.179 E-score
AAACAAGG | -0.0269 E-score
AGCTGAAC | -0.172 E-score
CGACGCGA | -0.068 E-score
AAGAAGTC | 0.00189 E-score
TAGGTATA | 0.382 E-score
AGCGTACA | -0.162 E-score

Sequence | binding signal
GGTAATAA | 0.0477 E-score
AAAAAGTC | -0.293 E-score
AGCGATAC | 0.453 E-score
GCTAGCAA | -0.147 E-score
GCGCCGAA | -0.213 E-score
TTAACAAA | -0.309 E-score
GCGCGCCC | -0.245 E-score
ATTCGCTG | -0.11 E-score
CCCCTTAC | 0.15 E-score
AGAACCTA | -0.0641 E-score
CGCAATCC | 0.229 E-score
GTCCGCGA | -0.0516 E-score
TGAGCTAA | -0.057 E-score
CCCAAGCG | -0.0981 E-score
CTTTTCGC | -0.241 E-score
ATATGTAG | 0.151 E-score
CCGTCCTC | -0.0618 E-score
AAGTGAGT | -0.0153 E-score
TGCAGCCA | -0.0699 E-score
CGCCCAAC | -0.186 E-score
GCATATAC | 0.227 E-score
CAGAGAAC | -0.171 E-score
GATTCATA | 0.107 E-score
ATTCCTGG | 0.019 E-score
AACGGTTC | -0.296 E-score

Sequence | binding signal
CATACTGC | -0.0865 E-score
GGGACTAA | -0.195 E-score
CTACTTGA | -0.113 E-score
GCTCTGTA | -0.00024 E-score
AGCTCATC | 0.0766 E-score
ACAGAATG | -0.168 E-score
ATGGGCGC | -0.259 E-score
ACCTGTGG | -0.0517 E-score
TACAGACA | 0.0658 E-score
AGCCTTGA | -0.0838 E-score
ATCAATAC | 0.367 E-score
CCATAGTC | -0.135 E-score
ACGGTGAT | 0.181 E-score
GGGCAGCA | -0.178 E-score
TCCTAAGA | -0.0408 E-score
GAAGATGA | 0.0209 E-score
GCCCGCCA | -0.0486 E-score
AGGTCAAG | -0.23 E-score
GTCGGGGA | 0.111 E-score
ATGCCATG | 0.0219 E-score
AGCGTAAG | -0.225 E-score
CAAAGAGC | -0.154 E-score
CGAACGGA | 0.134 E-score
CGCTCACC | -0.0796 E-score
CGGATTTA | 0.196 E-score

Sequence | binding signal
AGAAACCA | -0.0272 E-score
CACCCCTC | 0.251 E-score
CTGTATCC | 0.387 E-score
GGTAGTCA | -0.00398 E-score
AACAAAGT | -0.163 E-score
GCCTCGCA | -0.125 E-score
GTGGGTCA | -0.0397 E-score
GGGGAACC | -0.109 E-score
AAGTTAAT | 0.00515 E-score
AACGAAAG | -0.18 E-score
AAGCGTAT | 0.231 E-score
GACTTATC | 0.0464 E-score
AGGCGAAC | -0.135 E-score
CGGTGGAA | -0.225 E-score
AGAGCCAT | -0.0522 E-score
TGGATCCA | 0.295 E-score
CCAAGGGA | 0.0716 E-score
CCGTCCCG | -0.165 E-score
AATTGTCC | -0.285 E-score
CACCCCGG | 0.155 E-score
GATTATAA | 0.165 E-score
CGCGTCTC | 0.0915 E-score
AATCTCCC | 0.13 E-score
CAACGTTC | -0.275 E-score
CTTTCGGA | -0.123 E-score

Sequence | binding signal
CCCTTAAA | -0.0185 E-score
CTGTGAAC | -0.133 E-score
CACGATAC | 0.438 E-score
ACGCCTCT | -0.118 E-score
AAAGCTGG | -0.146 E-score
CACCTTCA | 0.0657 E-score
CGCCCGGA | 0.0225 E-score
CCTTGTCC | 0.0393 E-score
ATTGACGA | 0.0689 E-score
CATAGGAG | -0.113 E-score
CGGTCGTC | -0.12 E-score
CGTATAAG | 0.139 E-score
GGGCAACA | -0.0459 E-score
ATTGTTTC | -0.0781 E-score
CCCTACAA | -0.0638 E-score
CCCCCATC | 0.0706 E-score
CATTTAAC | -0.0253 E-score
GCTAGGTA | 0.0894 E-score
ATCAGTCG | 0.154 E-score
AATGGGCA | -0.226 E-score
ACGCGCAG | -0.047 E-score
ACCGGCGG | -0.0269 E-score
CTCGTCGC | -0.179 E-score
CGGTGAAA | -0.0121 E-score
CGGCTTAA | 0.13 E-score

Sequence | binding signal
CTTGTTGA | -0.0132 E-score
GCACTTCA | -0.269 E-score
CATACGAC | 0.0218 E-score
AATAATGC | 0.0282 E-score
GGTTGGCA | -0.0309 E-score
AACGAACC | -0.0542 E-score
ATGATCCA | 0.391 E-score
GGAAATAA | -0.11 E-score
ACCTGAGT | -0.0865 E-score
CGCAAGCG | -0.17 E-score
GTGTTGTA | 0.00185 E-score
CCGCAGGA | -0.0257 E-score
CACACTTC | -0.0634 E-score
GGAGAACC | 0.12 E-score
GACATCAC | -0.158 E-score
AAAATTTC | -0.152 E-score
ATACAAGA | 0.239 E-score
ACGAAGCA | -0.124 E-score
CCACGGAG | -0.00554 E-score
AACTCCAA | -0.253 E-score
TATTAAGA | 0.0987 E-score
CGCAGCGC | -0.125 E-score
AAGTGTGA | -0.112 E-score
AACGGCAT | -0.0142 E-score
ACGGTACC | -0.0396 E-score

Sequence | binding signal
CTGACGCC | -0.103 E-score
CATCGGTC | -0.0237 E-score
ACTGGACC | -0.162 E-score
CTCCTGTA | -0.102 E-score
GCCAACTA | -0.146 E-score
ACTTATTC | -0.12 E-score
ATACGCCC | 0.275 E-score
AAAATCCA | 0.00411 E-score
ATATGTAC | 0.244 E-score
CAGGTACA | -0.0285 E-score
CCGTGCGA | 0.109 E-score
CTGTTCTC | -0.184 E-score
CACTTCTA | 0.143 E-score
CGAAGGCC | -0.356 E-score
ACCCTCGA | 0.103 E-score
ATCTTAGC | 0.0959 E-score
CATTCACA | -0.271 E-score
AACTCTGA | -0.183 E-score
AGCGAATG | -0.178 E-score
CGGCGGCC | -0.131 E-score
CAGCTCTA | -0.00351 E-score
CACGCGAG | -0.122 E-score
